Test results taken from the supplement of paper PMC10126150.
Sequences with one replicate were seen in a single cluster, so their values are uncertain.

Tested on: ATP
Assay: switch fluorescence ratio, 500 uM ATP over buffer (Cy3 cluster intensity, sum of 5 cycles each) (fold (ratio)); higher = stronger signal-on switching upon ATP binding; sequences stand for … in TCGTCGGCAGCGTCAGATGTGTATAAGAGACAGTTTTTTTTTTTTTTTTTTTTTTTTT…TC
Conditions: aptamer strand: ATP DNA aptamer (quencher-CACCTGGGGGAGTATTGCGGAGGAAGG + anchor), 100 nM annealed; ATP concentration: 500 uM; one replicate
In short: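 Five buffer/ATP imaging cycles were run on Cy3-labelled switching-strand clusters on a modified Illumina MiSeq flow-cell, with NaOH stripping and re-annealing between cycles. In each cycle, clusters annealed to 100 nM quencher-labelled ATP aptamer were imaged in selection buffer, then after 15 min with 500 uM ATP at 22 °C. Per cluster, the fluorescence ratio is summed target-cycle over summed buffer-cycle Cy3 intensity, averaged per switch-domain sequence. Only clusters within 100-1000 RFU were kept.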
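Note: ATP exposure 15 min at 22 °C before imaging.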

Q: Which switch fluorescence ratio does the source give for GGGAAGAGCT here?
A: 0.968

Q: How did the switch fluorescence ratio turn out when GGGAAGCTGC was run?
A: 1.01

Q: How did the switch fluorescence ratio turn out when GGGAAGTTGA was run?
A: 0.992

Q: For GGGAATCAGG, which switch fluorescence ratio is on record?
A: 0.977

Q: For GGGAATTGAC, which switch fluorescence ratio is on record?
A: 1.02

Q: With GGGACAGCAA as the sequence, how does the switch fluorescence ratio read?
A: 1.87

Q: How did the switch fluorescence ratio turn out when GGGACAGCGG was run?
A: 1.03

Q: How did the switch fluorescence ratio turn out when GGGACCCCAT was run?
A: 0.999

Q: For GGGACCGGAG, which switch fluorescence ratio is on record?
A: 1.02

Q: How did the switch fluorescence ratio turn out when GGGACCGTGA was run?
A: 1.02

Q: GGGACCTTAT was tested. Which switch fluorescence ratio did it give?
A: 1.04

Q: How did the switch fluorescence ratio turn out when GGGACGCGA was run?
A: 1.71

Q: Which switch fluorescence ratio does the source give for GGGACGCGAT here?
A: 1.02

Q: GGGACTGAGC was tested. Which switch fluorescence ratio did it give?
A: 0.968

Q: For GGGACTTAGG, which switch fluorescence ratio is on record?
A: 1.01

Q: Which switch fluorescence ratio does the source give for GGGAGACACT here?
A: 1.01

Q: For GGGAGACTGG, which switch fluorescence ratio is on record?
A: 0.961

Q: How did the switch fluorescence ratio turn out when GGGAGCAATC was run?
A: 2.63

Q: Which switch fluorescence ratio does the source give for GGGAGCCGAC here?
A: 1.03

Q: For GGGAGTAATC, which switch fluorescence ratio is on record?
A: 1.08

Q: Which switch fluorescence ratio does the source give for GGGAGTGAAG here?
A: 1.01

Q: How did the switch fluorescence ratio turn out when GGGATAACGC was run?
A: 0.988

Q: How did the switch fluorescence ratio turn out when GGGATAAGCG was run?
A: 0.979

Q: With GGGATAGTGT as the sequence, how does the switch fluorescence ratio read?
A: 0.998

Q: GGGATCGAAA was tested. Which switch fluorescence ratio did it give?
A: 1.01

Q: With GGGATCGGAT as the sequence, how does the switch fluorescence ratio read?
A: 0.985

Q: For GGGATGCACT, which switch fluorescence ratio is on record?
A: 1.03

Q: Which switch fluorescence ratio does the source give for GGGATGGGT here?
A: 1.01

Q: GGGATGTTGT was tested. Which switch fluorescence ratio did it give?
A: 0.991

Q: How did the switch fluorescence ratio turn out when GGGATGTTTC was run?
A: 1.04

Q: GGGATTAAG was tested. Which switch fluorescence ratio did it give?
A: 1.05

Q: GGGATTCCGG was tested. Which switch fluorescence ratio did it give?
A: 0.985

Q: For GGGATTGTGG, which switch fluorescence ratio is on record?
A: 0.961

Q: GGGATTTAAC was tested. Which switch fluorescence ratio did it give?
A: 1.03

Q: GGGCAATCAA was tested. Which switch fluorescence ratio did it give?
A: 1.02

Q: For GGGCAGGCAG, which switch fluorescence ratio is on record?
A: 0.992

Q: How did the switch fluorescence ratio turn out when GGGCAGGGAT was run?
A: 0.993

Q: For GGGCAGTAAT, which switch fluorescence ratio is on record?
A: 1.02

Q: GGGCATGAAC was tested. Which switch fluorescence ratio did it give?
A: 0.996

Q: How did the switch fluorescence ratio turn out when GGGCATTAGG was run?
A: 0.985

Q: With GGGCATTCAA as the sequence, how does the switch fluorescence ratio read?
A: 1

Q: Which switch fluorescence ratio does the source give for GGGCCAGGCG here?
A: 1

Q: With GGGCCAGTAG as the sequence, how does the switch fluorescence ratio read?
A: 1

Q: How did the switch fluorescence ratio turn out when GGGCCCCGTT was run?
A: 0.967

Q: Which switch fluorescence ratio does the source give for GGGCCCTAAG here?
A: 0.962

Q: With GGGCCGAGAT as the sequence, how does the switch fluorescence ratio read?
A: 0.998

Q: With GGGCCGCAGC as the sequence, how does the switch fluorescence ratio read?
A: 1.15

Q: GGGCCTTATA was tested. Which switch fluorescence ratio did it give?
A: 0.979

Q: How did the switch fluorescence ratio turn out when GGGCGACAG was run?
A: 0.99

Q: For GGGCGATAGA, which switch fluorescence ratio is on record?
A: 1.05

Q: For GGGCGATTAC, which switch fluorescence ratio is on record?
A: 1.74

Q: How did the switch fluorescence ratio turn out when GGGCGCCAGT was run?
A: 1

Q: With GGGCGCCTGA as the sequence, how does the switch fluorescence ratio read?
A: 0.964

Q: GGGCGGCCCA was tested. Which switch fluorescence ratio did it give?
A: 1.18

Q: Which switch fluorescence ratio does the source give for GGGCGGCTTT here?
A: 0.973

Q: For GGGCGGTATC, which switch fluorescence ratio is on record?
A: 1.02

Q: How did the switch fluorescence ratio turn out when GGGCGTTGC was run?
A: 0.988

Q: How did the switch fluorescence ratio turn out when GGGCTAGAAA was run?
A: 1.01

Q: For GGGCTAGCAT, which switch fluorescence ratio is on record?
A: 0.986

Q: For GGGCTATG, which switch fluorescence ratio is on record?
A: 1.01

Q: With GGGCTCCAAG as the sequence, how does the switch fluorescence ratio read?
A: 1.04

Q: How did the switch fluorescence ratio turn out when GGGCTCGATA was run?
A: 1

Q: Which switch fluorescence ratio does the source give for GGGCTGAAAA here?
A: 1

Q: For GGGCTGCAAA, which switch fluorescence ratio is on record?
A: 0.972

Q: For GGGCTGCTTT, which switch fluorescence ratio is on record?
A: 1.01

Q: GGGCTGGCAG was tested. Which switch fluorescence ratio did it give?
A: 0.938

Q: Which switch fluorescence ratio does the source give for GGGCTGTCGG here?
A: 0.988

Q: For GGGCTTAGG, which switch fluorescence ratio is on record?
A: 1.05

Q: GGGCTTAGTA was tested. Which switch fluorescence ratio did it give?
A: 0.971

Q: With GGGCTTGACC as the sequence, how does the switch fluorescence ratio read?
A: 1

Q: Which switch fluorescence ratio does the source give for GGGCTTGGTT here?
A: 1.04

Q: With GGGCTTGTCA as the sequence, how does the switch fluorescence ratio read?
A: 0.992

Q: GGGCTTTCGG was tested. Which switch fluorescence ratio did it give?
A: 0.985

Q: GGGGAAATCG was tested. Which switch fluorescence ratio did it give?
A: 0.964

Q: With GGGGAACGTA as the sequence, how does the switch fluorescence ratio read?
A: 0.932

Q: With GGGGACGGCC as the sequence, how does the switch fluorescence ratio read?
A: 0.901

Q: For GGGGACGTGT, which switch fluorescence ratio is on record?
A: 0.993

Q: How did the switch fluorescence ratio turn out when GGGGACTT was run?
A: 0.987

Q: With GGGGAGCAGG as the sequence, how does the switch fluorescence ratio read?
A: 1.09

Q: How did the switch fluorescence ratio turn out when GGGGAGTGGT was run?
A: 1.03

Q: Which switch fluorescence ratio does the source give for GGGGATCATT here?
A: 0.988

Q: For GGGGCATTGA, which switch fluorescence ratio is on record?
A: 0.997

Q: GGGGCCACCA was tested. Which switch fluorescence ratio did it give?
A: 1.16

Q: With GGGGCCTAAG as the sequence, how does the switch fluorescence ratio read?
A: 1.1

Q: GGGGCGCAAC was tested. Which switch fluorescence ratio did it give?
A: 3.54
